Source: PubChem BioAssay AID1347165 (National Center for Advancing Translational Sciences (NCATS), 2019)
Screen size: about 220,000 compounds; about 5,700 (2.6%) were called active. The shares of active, inactive and inconclusive entries below differ from those in the screen. Calls follow the shape of the dose curve; as a rule, active = well fitted inhibition curve with a large enough effect; inconclusive = small, poorly fitted or top-dose-only effect; inactive = no such curve, though single readings can be large or run the other way. Potencies of inconclusive entries are doubtful fits and often do not repeat.

target: Lysine-specific demethylase 5B (Homo sapiens) (UniProt Q9UGL1); assay: Primary screen for KDM5B Histone Demethylases FDH-coupled qHTS; conditions: FDH-coupled NADH fluorescence (FDH is formaldehyde dehydrogenase); activity change, negative = inhibition: at 57.7 µM (top of the series) unless noted; also: nearly all actives have a fitted effect of over 70% in size; as to activity change, negative = inhibition: 0% is about no effect
UniProt Q9UGL1, sequence (Q9UGL1 whole entry, looked up): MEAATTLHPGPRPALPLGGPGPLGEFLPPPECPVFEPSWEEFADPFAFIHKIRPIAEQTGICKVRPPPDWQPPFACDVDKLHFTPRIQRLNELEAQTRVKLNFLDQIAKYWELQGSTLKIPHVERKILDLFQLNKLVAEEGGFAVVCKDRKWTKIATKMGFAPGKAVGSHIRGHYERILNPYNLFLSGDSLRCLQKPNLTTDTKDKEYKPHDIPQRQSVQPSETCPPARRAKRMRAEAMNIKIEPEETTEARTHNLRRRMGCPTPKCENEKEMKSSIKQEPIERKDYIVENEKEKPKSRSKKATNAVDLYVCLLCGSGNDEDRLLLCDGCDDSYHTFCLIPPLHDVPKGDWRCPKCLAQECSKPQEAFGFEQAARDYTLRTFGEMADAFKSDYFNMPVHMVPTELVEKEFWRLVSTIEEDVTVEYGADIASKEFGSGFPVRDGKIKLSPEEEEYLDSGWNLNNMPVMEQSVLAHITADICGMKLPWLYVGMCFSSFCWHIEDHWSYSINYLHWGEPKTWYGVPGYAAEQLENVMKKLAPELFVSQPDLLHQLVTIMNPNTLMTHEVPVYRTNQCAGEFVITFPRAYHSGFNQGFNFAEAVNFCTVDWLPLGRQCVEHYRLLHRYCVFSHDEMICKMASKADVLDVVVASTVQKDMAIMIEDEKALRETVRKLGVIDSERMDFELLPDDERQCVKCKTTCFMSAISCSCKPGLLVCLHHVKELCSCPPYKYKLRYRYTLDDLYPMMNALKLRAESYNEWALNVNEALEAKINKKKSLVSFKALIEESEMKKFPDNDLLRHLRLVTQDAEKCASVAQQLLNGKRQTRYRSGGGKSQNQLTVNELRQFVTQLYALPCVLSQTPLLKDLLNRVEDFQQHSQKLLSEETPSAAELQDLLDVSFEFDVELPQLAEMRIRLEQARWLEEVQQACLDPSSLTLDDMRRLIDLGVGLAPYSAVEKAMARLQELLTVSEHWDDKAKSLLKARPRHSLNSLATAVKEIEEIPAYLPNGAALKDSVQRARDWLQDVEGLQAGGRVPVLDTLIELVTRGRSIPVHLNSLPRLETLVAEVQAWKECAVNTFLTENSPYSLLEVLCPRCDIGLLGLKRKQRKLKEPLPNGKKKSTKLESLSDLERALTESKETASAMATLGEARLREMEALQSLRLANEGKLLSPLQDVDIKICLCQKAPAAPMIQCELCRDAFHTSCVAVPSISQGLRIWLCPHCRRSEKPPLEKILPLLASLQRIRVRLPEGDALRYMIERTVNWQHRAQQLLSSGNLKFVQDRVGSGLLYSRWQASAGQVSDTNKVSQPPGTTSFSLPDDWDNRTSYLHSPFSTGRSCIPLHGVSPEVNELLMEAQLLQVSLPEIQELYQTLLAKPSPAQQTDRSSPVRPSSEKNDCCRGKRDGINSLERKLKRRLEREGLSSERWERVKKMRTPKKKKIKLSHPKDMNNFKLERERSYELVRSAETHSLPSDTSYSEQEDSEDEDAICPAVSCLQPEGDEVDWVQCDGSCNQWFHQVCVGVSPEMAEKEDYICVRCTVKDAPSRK
Outline: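 Compound dilutions met 200 nM (final) KDM5BΔAP for 10 min at room temperature before substrate addition. The substrate mix held 12.5 µM H3K4me3 with cofactors 25 µM α-ketoglutarate and 50 µM Fe²⁺. NADH signal gain over 30 min defined activity.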
Potency is read from the fitted curve at half-maximal effect; tags tell the direction and shape of the fitted curve.

Compound | Potency | activity change, negative = inhibition
Cc1scc(CN2CCN(c3ccc(F)cc3)CC2)c1C | inconclusive: 44.7 µM [inhibitor, single point] | 
c1cc(CN2CC[C@H]3CNC[C@H]32)cc(OCCCCN2CCCCC2)c1 | inconclusive: 20 µM [inhibitor, partial curve, poor fit] | 
COC(=O)c1cc2c(s1)-c1cc(F)ccc1OC2 | inconclusive: 10 µM [inhibitor, partial curve, poor fit] | 
Cc1ccc(CNc2ncccc2-c2nc(-c3ccc(Cl)cc3)no2)cc1 | inconclusive: 7.94 µM [inhibitor, partial curve, poor fit] | 
CCOCC(=O)N1C[C@@H]2CCCN3CCC[C@@H]([C@H]23)[C@H]1CCCC(=O)Nc1ccccc1 | inactive | 
Cc1ccc(N2CC(c3noc(-c4cc(Cl)ccc4F)n3)CC2=O)cc1 (stereo not given) | inconclusive: 28.2 µM [inhibitor, single point] | 
O=C(Cc1c[nH]c2ccccc12)NC1CCCc2c1[nH]c1ccc(F)cc21 (stereo not given) | inconclusive: 22.4 µM [inhibitor, partial curve] | 
COc1ccc(C(=O)N2CCC(N3CCCCCC3)CC2)cc1 | inconclusive: 28.2 µM [inhibitor, partial curve, poor fit] | 
CCOc1ccc(C(C)=O)cc1COC(=O)/C(=C\c1ccccc1)NC(C)=O | inactive | 
Cc1ccc(CN2CCC3(CC2)CN(C2CCC2)CC3CO)o1 (stereo not given) | inconclusive: 15.8 µM [inhibitor, partial curve] | 
Cc1ccc2cc(C(=O)NCCN(C(C)C)C(C)C)[nH]c2c1 | inconclusive: 22.4 µM [inhibitor, partial curve, poor fit] | 
COC[C@H]1C[C@@H](NC(=O)Nc2cccnc2)[C@H](O)[C@@H]1O | inactive | 
Cc1cc(N2CCC3(CCCN(C)C3=O)C2)nc(-c2ccccc2O)n1 (stereo not given) | inconclusive: 28.2 µM [inhibitor, partial curve, poor fit] | 
CCc1ccc(Cn2c(CNS(=O)(=O)c3ccc(F)c(Cl)c3)nc3cccnc32)cc1 | inactive | 
COC(=O)C1=C(C)OC(N)=C(C#N)C1c1ccc(C(C)C)cc1 (stereo not given) | inconclusive: 39.8 µM [inhibitor, single point] | 
COc1ccc(N2CC3CCC(C2)N3Cc2cccc(-c3cccnc3)c2)cc1 | inactive | 
Cc1ccc(-c2cc(C(=O)Nc3ccc(C(N)=O)cc3)c3ccccc3n2)o1 | inconclusive: 28.2 µM [inhibitor, partial curve, poor fit] | 
CC(=O)N1CCCC1c1nc2ccccc2n1Cc1ccccc1 (stereo not given) | inconclusive: 35.5 µM [inhibitor, single point] | 
CCN1c2cc(C(=O)NCc3cccc(OC)c3)ccc2C(=O)N2CCCCCC21 (stereo not given) | inconclusive: 22.4 µM [inhibitor, partial curve, poor fit] | 
CCOC(=O)c1ccc(NC(=O)c2c(N3CCCC3=O)c3cc(OC)ccc3n2C)cc1 | inconclusive: 7.08 µM [inhibitor, partial curve, poor fit] | 
CCCn1c(C)c(CC(=O)NCC2COCCO2)c2c1CC(C)(C)CC2=O (stereo not given) | inconclusive: 6.31 µM [inhibitor, single point] | 
COc1cccc(C2CCCN2Cc2cc(=O)oc3c(C)c(O)ccc23)c1 (stereo not given) | inconclusive: 25.1 µM [inhibitor, single point] | 

Compound | Potency | activity change, negative = inhibition
COc1cc(-c2nccc3c(=O)cc(N(C)c4ccccc4)oc23)ccn1 | inactive | 
COc1ccc(-n2nnnc2SCC(=O)NC(C)c2ccc(-c3ccccc3)cc2)cc1 (stereo not given) | inactive | 
Cc1coc2c1c(C)cc1oc(=O)c(CC(=O)NCC(=O)NCC(=O)O)c(C)c12 | inconclusive: 28.2 µM [inhibitor, partial curve, poor fit] | 
Cc1ccc(N2C(=O)N(CC(=O)C(C)(C)C)c3ccccc3S2(=O)=O)cc1C | inconclusive: 3.55 µM [inhibitor, partial curve, poor fit] | 
CCc1cccc(NC(=O)c2cc3c(=O)n(Cc4ccc(OC)cc4)ccc3nc2C)c1 | inconclusive: 25.1 µM [inhibitor, single point] | 
Cc1sc2nc(NCC(C)O)n3nc(-c4ccco4)nc3c2c1C (stereo not given) | inconclusive: 39.8 µM [inhibitor, single point] | 
CN1CCN(C(=O)c2ccc(-c3ccc(N4CCSCC4)nc3)cc2)CC1 | active: 28.2 µM | 
Cn1cc(CN2Cc3ccc(C(=O)Nc4nccs4)cc3OCC2=O)cn1 | inactive | 
Cc1sc2nc(CN3CCCC3)nc(Sc3nnnn3C3CC3)c2c1C | inconclusive: 28.2 µM [inhibitor, partial curve, poor fit] | 
COc1ccccc1-c1nc2c(c(SCC(=O)Nc3c(C)cc(C)cc3C)n1)Cc1c(CO)cnc(C)c1O2 |  | inconclusive: -33.3% [inhibitor]
COc1ccc(C2C(C#N)=C(N)Oc3n[nH]c(C)c32)cc1 (stereo not given) | inconclusive: 17.8 µM [inhibitor, partial curve] | 
COc1ccccc1-c1noc(-c2nnn3c2COC(c2ccc(Cl)cc2)C3)n1 (stereo not given) | inconclusive: 22.4 µM [inhibitor, partial curve, poor fit] | 
CCn1c(SC(C)C(=O)Nc2ccnn2C(C)C)nnc1C1CC1 (stereo not given) | inactive | 
CCOC(=O)c1c(NC(=O)c2cc3nc(-c4ccc(OC)cc4)cc(C(F)(F)F)n3n2)sc2c1CCC(C)C2 (stereo not given) | inconclusive: 31.6 µM [inhibitor, partial curve, poor fit] | 
CCC(C(=O)NC12CC3CC(CC(C3)C1)C2)c1ccccc1 (stereo not given) | inactive | 
COc1ccc(-c2cc(N3CCCN(C(=O)c4ccc(C)s4)CC3)n[nH]2)cc1 | inconclusive: 15.8 µM [inhibitor, partial curve] | 
CS(=O)(=O)N1CC2(CCN(Cc3c[nH]c4ccccc34)C2)Cc2ccccc21 (stereo not given) | inconclusive: 39.8 µM [inhibitor, partial curve, poor fit] | 
O=C(NCc1cccs1)c1ccc(Cn2c(SCc3cccc(F)c3)nc3cccnc32)cc1 | inconclusive: 35.5 µM [inhibitor, partial curve, poor fit] | 
O=c1[nH]c(CSc2nnc(N3CCCCC3)n2-c2ccccc2)nc2cc(Cl)ccc12 | inactive | 
CCN(CC)CCNC(=O)C(C)c1n[nH]c(=O)c2ccccc12 (stereo not given) | inactive | 
COc1ccc(N2CCN(c3nc(C(=O)NCc4ccc(F)cc4F)cs3)CC2)cc1 | inactive | 
COc1ccc2c(c1C)CCCC2 | inactive | 

Compound | Potency | activity change, negative = inhibition
CCc1ccc(NC(=O)Cn2ccn3nc4c(c3c2=O)CC(C)CC4)cc1 (stereo not given) | inconclusive: 39.8 µM [inhibitor, single point] | 
Cc1ccc(S(=O)(=O)NCCC(=O)Nc2cccc(S(N)(=O)=O)c2)cc1C | inactive | 
COc1ccc(Oc2ccc3[nH]c4c(c3c2)CCC/C4=N/O)cc1 | inconclusive: 20 µM [inhibitor, partial curve, poor fit] | 
CCN(CC)C(=O)Cc1c(C)[nH]c2ccc(F)cc12 | inactive | 
Cc1nc2scc(CC(=O)NCc3ccco3)n2c(=O)c1-c1cc(C)n(-c2cc(F)ccc2F)n1 | active: 25.1 µM | 
COc1ccc(-c2ccnc3nc(-c4ccccc4OC)nn23)c(F)c1 | inconclusive: 15.8 µM [inhibitor, partial curve, poor fit] | 
Cc1ccc(NC(=O)CSc2ncc3c(n2)-c2ccc(Cl)cc2N(C)S3(=O)=O)cc1F | inconclusive: 1.12 µM [inhibitor, partial curve, poor fit] | 
COC(=O)[C@@H]1Cc2ncn(C)c2CN1C(=O)c1cccs1 | inconclusive: 31.6 µM [inhibitor, single point] | 
COc1ccc2c(C)c(CC(=O)NCc3ccco3)c(=O)oc2c1OC | inconclusive: 25.1 µM [inhibitor, partial curve, poor fit] | 
CCOCCn1c(-n2nc(C)cc2C)nc2c1c(=O)[nH]c(=O)n2C | inactive | 
COc1cccc(NC(=O)N2CCN3CCCCC3C2)c1 (stereo not given) | inconclusive: 3.98 µM [inhibitor, partial curve, poor fit] | 
CCOC(=O)CSc1n[nH]c2nc3c(c(=O)n12)C1(CCCC1)Cc1ccccc1-3 | inconclusive: 8.91 µM [inhibitor, full curve, poor fit] | 
COc1ccc(-c2noc(Cn3c(=O)c4ccccc4n(CC(=O)Nc4cccc(OC)c4)c3=O)n2)cc1 | inconclusive: 22.4 µM [inhibitor, single point] | 
COCCNC(=O)[C@H]1C[C@H](Oc2cccnc2)CN1C(=O)NC(C)C | inactive | 
Cc1ccc(N(C)S(=O)(=O)c2cccc(C(=O)Nc3nc4ccccc4[nH]3)c2)cc1 | inconclusive: 31.6 µM [inhibitor, single point] | 
COC[C@@H]1CN(C(=O)c2cn[nH]c2C)C[C@H]1c1ccncc1 | inactive | 
CC(=O)N1CCOc2ccc(CCC(=O)N3CCN(C4CCCCC4)CC3)cc2C1 | inconclusive: 12.6 µM [inhibitor, partial curve] | 
CCOc1ccccc1Oc1coc2cc(OC(=O)c3ccccc3F)ccc2c1=O | inconclusive: 31.6 µM [inhibitor, single point] | 
COc1ccccc1N(C(=O)c1snc(C(N)=O)c1N)C(C(=O)NC1CCCC1)c1ccc2ncccc2c1 (stereo not given) | inconclusive: 25.1 µM [inhibitor, partial curve, poor fit] | 
CCn1ccc(C(=O)N2CCCn3cc(-c4cccc(C#N)c4)nc32)n1 | inconclusive: 28.2 µM [inhibitor, partial curve, poor fit] | 
Cc1nc(-c2ccccc2)sc1C(C)N (stereo not given) | inactive | 
